This is one part of the list. At the low end of the ranking, values are background and their order means little.

The assay deals with T1, GST-Rok-C97-191 (UniProt O34857).
T1 sequence: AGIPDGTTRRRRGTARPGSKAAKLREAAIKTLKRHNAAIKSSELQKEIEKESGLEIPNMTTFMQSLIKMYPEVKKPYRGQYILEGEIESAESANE
Nature of the assay: protein binding microarray.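 Note: rank score from −0.5 (least bound) to 0.5 (best bound).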 As to conditions: Rok is a gene silencer of Bacillus subtilis; high values mean tight binding; most listed sequences are background and not binding sites; double strand, one strand shown.
AGGTTTGA registered a binding signal of 0.00877 E-score. Next, AAACCGCG: -0.0204 E-score; ACTCATAA: 0.00776 E-score; GGGATCGA: -0.163 E-score. Next, AAGAGGTG: -0.0835 E-score. For the sequence CCTTACCG, the binding signal was -0.103 E-score. Next, GATCGTAC: 0.1 E-score. On to ACCCATGC, for which the binding signal is -0.182 E-score. For CACCGATG, the binding signal is -0.0652 E-score. Take CGACGCCC: the binding signal is -0.24 E-score.

For CCGCGACA, the binding signal was -0.149 E-score. With TCTCGAGA, the binding signal was 0.0362 E-score. Take AAGAGCCC: the binding signal was -0.31 E-score. Next, GACAAATC: -0.0545 E-score; CGCGGGCA: -0.256 E-score; CAAGGTTC: -0.111 E-score. Regarding ACACTAAG, the binding signal was -0.14 E-score. Next, CGGTACGA: -0.195 E-score. CAAATCGA came in with a binding signal of 0.131 E-score. As to ACTCCAAT, the binding signal is -0.0489 E-score. On to ATCCAAGG, for which the binding signal is -0.138 E-score. On to ACCAGTAG, for which the binding signal was determined as 0.259 E-score.

Take ACTGCTCC: the binding signal is -0.00368 E-score. In turn, AGAAGTTG showed a binding signal of 0.0563 E-score. Next, AGCGCAGA: -0.067 E-score; AGAAATCG: -0.0981 E-score; ATGTGAAA: 0.119 E-score.

With AAGATTCG, the binding signal was -0.0808 E-score. In turn, ATCTCTAA registered a binding signal of 0.106 E-score. For the sequence AAGCGATG, the binding signal is -0.0686 E-score. In turn, GATGTACA displayed a binding signal of 0.29 E-score. As to CACTCATG, the binding signal was -0.324 E-score. GAACAAGA: the binding signal was -0.0434 E-score. The sequence AACTATCA had a binding signal of 0.369 E-score. Next, AGTCGAAT: -0.159 E-score; CTGCCTTC: -0.104 E-score. CCCAACGG: the binding signal is -0.186 E-score.

Take GTAAGAGA: the binding signal was -0.0585 E-score. GGCTGTAA returned a binding signal of 0.0224 E-score. Next, CCCTGCGG: -0.367 E-score; CGGAGAGA: -0.168 E-score. As for ACGGCTAG, the binding signal was 0.0611 E-score. For the sequence GAGTATAC, the binding signal stood at 0.184 E-score. AATCCACA: the binding signal amounted to 0.0662 E-score. As to ACCGTTGG, the binding signal is -0.173 E-score.

As for AATCCGAC, the binding signal was -0.0946 E-score. With AAACTGGT, the binding signal is 0.0422 E-score. Turning to AGAAGCCT, the binding signal is -0.183 E-score. Consider GTGGTAAC, for which the binding signal turned out to be 0.142 E-score. Consider ACAAGGTC, for which the binding signal is -0.191 E-score. Turning to GATAGCAC, the binding signal is 0.0324 E-score. In the case of ATTTGGCA, the binding signal amounted to 0.0819 E-score. Take CTCCTTTA: the binding signal is -0.215 E-score. Next, GACTAACA: -0.122 E-score. As to GAGTCCAC, the binding signal was -0.309 E-score. Regarding TGCTTCCA, the binding signal is -0.238 E-score. Next, AGCTCAAG: 0.109 E-score. Take CGAACAAC: the binding signal is -0.0735 E-score. CTGAACTA came in with a binding signal of 0.148 E-score.

Take CATTAATC: the binding signal is 0.11 E-score. Next, CGACCCCC: -0.233 E-score; ACTGTCGC: -0.0494 E-score.

Take GAGTTGGA: the binding signal was -0.115 E-score. With CGTGCGAC, the binding signal was -0.132 E-score.

Regarding CGGTCTAC, the binding signal is -0.0738 E-score. Next, ATTCCTCC: 0.0246 E-score; AAGGACAT: -0.097 E-score; ACCCTCGG: -0.306 E-score. Next, TTCAAAAA: -0.0543 E-score; CGTCATGA: -0.14 E-score; GAGGCTGA: -0.165 E-score. In turn, ATATCTGC displayed a binding signal of 0.0868 E-score. The sequence ACATCTAC came in with a binding signal of 0.23 E-score. For CTTAGATC, the binding signal was determined as 0.0963 E-score. Turning to CATATTTA, the binding signal is 0.282 E-score. Turning to CCCTGGTA, the binding signal was -0.0735 E-score. Turning to ATCCGGTA, the binding signal was 0.148 E-score. CATTTGAA: the binding signal is -0.0649 E-score.

For the sequence ATGCAACC, the binding signal amounted to 0.0833 E-score.

As to CACACCCC, the binding signal was -0.353 E-score. Next, CCGCTTAC: -0.0832 E-score. The sequence CTTATATC came in with a binding signal of 0.117 E-score. With GCGGTTAC, the binding signal is -0.314 E-score. Next, AGCTGCCT: -0.175 E-score. Regarding CAGCTTCC, the binding signal was -0.21 E-score. Next, GGGGTACA: 0.0482 E-score; GCTGTATA: 0.0861 E-score; ACCCAGCC: -0.0986 E-score. Regarding GATTCCTA, the binding signal is 0.241 E-score. Next, CAGATAAC: 0.0674 E-score; CACTCTGC: -0.276 E-score; GATTTTTA: 0.162 E-score. Next, ACCCATAG: 0.084 E-score; AGCGCAAG: -0.0906 E-score; AGTAATAC: 0.274 E-score. CGTCCGAG: the binding signal was -0.0967 E-score. Sequence TAATGACA had a binding signal of 0.16 E-score. As to ACCGTTAG, the binding signal is -0.0316 E-score. In turn, AAATCAAA registered a binding signal of 0.0333 E-score.

AGACATAG yielded a binding signal of 0.0271 E-score. Take CAGTGCGG: the binding signal is -0.157 E-score.

On to CAGAATGA, for which the binding signal was determined as 0.0723 E-score.

In the case of CCCGCAGA, the binding signal was -0.219 E-score. Next, GGGGAGTA: -0.201 E-score. Take CGGCGCTA: the binding signal is -0.109 E-score. Regarding GCGTAACC, the binding signal was -0.145 E-score. In the case of CCGACCGG, the binding signal was -0.318 E-score. Next, AAAGGTAA: -0.091 E-score; ATGAGCAG: -0.0187 E-score.

On to CTCTAAAA, for which the binding signal is -0.112 E-score. For the sequence GCCGGGCC, the binding signal was -0.326 E-score. For the sequence CGCAGTAC, the binding signal is -0.122 E-score.

Consider TCGCTCCA, for which the binding signal is -0.073 E-score. Next, CTACCGTC: 0.202 E-score; AAACCTTG: -0.0382 E-score; CACGGGTA: -0.0689 E-score. For AGAGAAAA, the binding signal amounted to 0.026 E-score. AGCTCACA: the binding signal came out at 0.0609 E-score. Next, TCATTACA: 0.15 E-score; CCTGGAGA: -0.22 E-score; CTAGCCGA: -0.229 E-score. Next, TAGCTCCA: 0.119 E-score; GAAGAGTA: 0.226 E-score. Consider ATGGTGAC, for which the binding signal is -0.0305 E-score. For ACTCGACC, the binding signal was -0.018 E-score. Regarding AGATCGGG, the binding signal is -0.11 E-score. Next, CTTACATC: -0.011 E-score.

AACTATGT: the binding signal was found to be 0.25 E-score.

In the case of GCACCGCA, the binding signal was -0.0601 E-score.

Take ACCCCTGG: the binding signal is -0.255 E-score. As for CTCCCAAA, the binding signal was -0.207 E-score. Take GGCAGCCA: the binding signal was -0.149 E-score. The sequence ACTGGTAC yielded a binding signal of 0.211 E-score. As for CTTGAACA, the binding signal is -0.143 E-score.

AACGGTAA: the binding signal was determined as 0.154 E-score. GGTCACAC: the binding signal is -0.261 E-score. Take CGTGAACG: the binding signal was -0.0619 E-score.

For the sequence GTAAAGCA, the binding signal was -0.0828 E-score. Take CTGAGGGC: the binding signal was -0.382 E-score. Regarding GCCAGCAC, the binding signal is -0.0682 E-score. Next, AATTTGCT: 0.107 E-score; ATGTAAGG: -0.138 E-score. TACATAGA had a binding signal of 0.224 E-score. GCACCTGC: the binding signal was -0.198 E-score. Turning to CGTGCAAC, the binding signal is -0.129 E-score. On to CATGATGG, for which the binding signal was -0.0573 E-score. Sequence TTAAGCAA returned a binding signal of 0.0224 E-score. Consider TCCGCCCA, for which the binding signal was -0.321 E-score. Next, ACCGTATA: 0.151 E-score; ATATGTTA: 0.331 E-score. As for GAGCCAAC, the binding signal was -0.253 E-score. For the sequence ACTGTAGG, the binding signal worked out at 0.113 E-score.

As to GGTCCAAA, the binding signal was -0.186 E-score. For GCCGAGAA, the binding signal was -0.0598 E-score. The sequence CCACGTTC returned a binding signal of 0.0651 E-score. Take AGCTTCCC: the binding signal is -0.028 E-score.

In turn, AGATGCAT showed a binding signal of 0.0308 E-score. With CCCAAGTA, the binding signal was 0.0835 E-score. In the case of CAGTAACA, the binding signal came out at 0.114 E-score.

For CCCCTGCC, the binding signal is -0.348 E-score.

For the sequence ACAGAGCT, the binding signal was -0.0478 E-score. For GCGTCAGA, the binding signal is -0.213 E-score. As for ATAGGACC, the binding signal came to 0.00808 E-score. The sequence AAATAACG came in with a binding signal of 0.211 E-score.

Regarding ACACAACA, the binding signal worked out at 0.113 E-score. The sequence ACAAACGA gave a binding signal of 0.109 E-score. Next, GATGAAAC: -0.0416 E-score. With GAACCAAA, the binding signal is -0.0881 E-score. TCTAGCCA showed a binding signal of 0.0129 E-score. Next, CAGAAAAG: 0.0765 E-score; AGCGGTCG: -0.138 E-score; CTGGAACA: -0.13 E-score.

These data come from PMC6212790.
